# Measured values taken from PubChem BioAssay AID1347120 (National Center for Advancing Translational Sciences (NCATS), 2019).
# Several values for one entry are separate records, joined by “and”; a condition that tells them apart may be missing. Identical values can stand only once. About 930 (0.24%) of roughly 390,000 compounds were called active. Inconclusive results, whose numbers are uncertain, are shown with a selection of clear calls. Calls follow the shape of the dose curve; as a rule, active = well fitted activation curve with a large enough effect; inconclusive = small, poorly fitted or top-dose-only effect; inactive = no such curve, though single readings can be large or run the other way. Potencies of inconclusive entries are doubtful fits and often do not repeat.
# Assay: qHTS for Suppressors of FUS Proteinopathy: Primary screen using FUS-linked yeast assay; also: nearly all actives have a fitted effect of over 55% in size;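 as to growth rescue (activation): plate controls were DMSO vehicle for no effect and reference control for full effect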
# Settings: S. cerevisiae FUS-expressing, OD600, 24 h; Potency: growth rescue; growth rescue (activation): at 76.6 µM (top of the series)
# Outline: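 Absorbance at 600 nm, taken 24hr after compound addition, measured rescue of FUS-yeast growth at 30C. Induction used 2% galactose with seeding at OD 0.005. Controls: CP55940 from 92uM final, DMSO only.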
# Potency is read from the fitted curve at half-maximal effect; tags tell the direction and shape of the fitted curve.
SMILES,Potency,growth rescue (activation)
OC(c1ccccc1)(c1ccccc1)C1CCN(C(=S)Nc2ccc(F)cc2)CC1,"inconclusive: 50.1 µM [activator, single point]",
O=c1c2ccccc2oc2c1ccc1ccccc12,inactive,
COC(=O)[C@@H]1[C@H](O[Si](C)(C)C(C)(C)C)C2OC2C[C@H]1S(=O)(=O)c1ccccc1 (some centres undefined),inactive,
CCCC[C@@H]1CNC(=O)C(=O)N1CCCC,inactive,
COc1cc(CCN2C(=O)c3cccc4cccc(c34)C2=O)c(S(=O)(=O)N2CCCCCC2)cc1OC,"inconclusive: 14.1 µM [activator, partial curve, poor fit]",
CCN(CC)c1ncnc2c1ncn2[C@H]1CN(Cc2ccc(-c3ccccc3)cc2)C[C@@H](CO)O1,active: 28.2 µM,
Cc1ccc(C)c(NC(=S)NNc2ccc(F)cc2F)c1,"inconclusive: 35.5 µM [activator, partial curve, poor fit]",
CN(C)c1nc2c(cnn2C)c(=O)[nH]1,inactive,
O=C1c2ccccc2S(=O)(=O)c2cc(C(=O)N3CCN(c4ccccc4)CC3)ccc21,inactive,
CC(C)Nc1ccc(-c2nc(-c3ccco3)no2)cc1[N+](=O)[O-],inactive,
CCC(C)(C)n1nnnc1CN1CCc2ccccc21,"inconclusive: 35.5 µM [activator, single point]",
CS(=O)(=O)c1cccc(C(=O)Nc2nnc(C3=COCCO3)o2)c1,inactive,
CCc1ccc(NC(=O)CCn2nc(-c3ccccc3OC)c3c(C)cc(C)nc32)cc1,"inconclusive: 35.5 µM [activator, single point]",
CCOC(=O)C1=C(C)N=c2s/c(=C3/C(=O)Nc4ccccc43)c(=O)n2C1c1ccc(C)cc1 (centres undefined),"inconclusive: 11.2 µM [activator, partial curve, poor fit]",
CCC(c1nnnn1Cc1ccco1)N(Cc1ccccc1OC)Cc1cc2cc(C)ccc2[nH]c1=O (centres undefined),"inconclusive: 4.47 µM [activator, full curve]",
CC1=CC(C)(C)N2C(=O)C(=O)c3cc(OC(=O)c4ccco4)cc1c32,"inconclusive: 17.8 µM [activator, partial curve, poor fit]",
Cc1ccc(CN(C)C(=O)CCc2nc3sc4c(c3c(=O)[nH]2)CCCC4)o1,"inconclusive: 11.2 µM [activator, partial curve]",
Cc1ccc(-n2ncc(C(=O)NCc3cccs3)c2C2CCN(C(=O)OC(C)(C)C)CC2)c(C)c1,"inconclusive: 22.4 µM [activator, partial curve, poor fit]",
CC(C)C1C(=O)N(Cc2cn(CCC3OCCO3)nn2)CCS(=O)(=O)N1Cc1ccc(-c2ccccc2Cl)cc1 (centres undefined),"inconclusive: 14.1 µM [activator, partial curve, poor fit]",
CC(C)=CCC/C(C)=C/CNCC(=O)N1c2ccccc2[C@]2(c3ccccc3)C[C@@H]3C(=O)N(C/C=C(\C)CCC=C(C)C)CC(=O)N3[C@H]12,active: 12.6 µM,
CC(=O)Nc1nn(CC(C)C)c2nc3ccc(C)cc3cc12,inactive,
COc1cc(NC(=O)COc2cc(O)c3c(c2)OC(C)(C)CC3=O)cc(OC)c1OC,"inconclusive: 28.2 µM [activator, single point]",

SMILES,Potency,growth rescue (activation)
CC(=O)c1ccc(-c2cnc3c(NC=O)cc(-c4cccc(NS(C)(=O)=O)c4)cn23)cc1,"inconclusive: 31.6 µM [activator, single point]",
COc1cccc(NC(=S)N(CCCN2CCOCC2)Cc2cn(C)c3ccccc23)c1,"inconclusive: 35.5 µM [activator, single point]",
CC(/C=N/NC(=O)Cc1cccn1C)=C\c1ccco1,"inconclusive: 15.8 µM [activator, partial curve, poor fit]",
CCCN(CC(=O)Nc1ccccc1C)C(=O)C1CCN(S(=O)(=O)c2cccc(C(F)(F)F)c2)CC1,"inconclusive: 35.5 µM [activator, single point]",
Oc1ccc2ccccc2c1-c1sc(Nc2ccccc2)n[n+]1-c1ccc(F)cc1,"inconclusive: 35.5 µM [activator, single point]",
CCC(C)Sc1cc(-c2nc3ccc(C)cn3c2NCc2ccccc2)ccc1OC (centres undefined),"inconclusive: 38.5 µM [activator, partial curve, poor fit] and active: 31.6 µM",
CC1CCCCN1CC(=O)Nc1sccc1C#N (centres undefined),"inconclusive: 35.5 µM [activator, partial curve]",
CCN(CC)C(=O)c1c(-c2ccccc2)c(-c2ccccc2)nn(C)c1=O,inactive,
CCCOc1cccc(-c2cc(C(=O)N/N=C/c3cccnc3)c3ccccc3n2)c1,"inconclusive: 50.1 µM [activator, single point]",
COc1ccc(-c2oc3ccccc3c2C#CC(C)(C)O)cc1,"inconclusive: 35.5 µM [activator, single point]",
CCN(CC)c1ccc(NC(=O)CSc2nnc(SCc3ccc(Cl)cc3)s2)cc1,inactive,
O=C(N[C@@H](Cc1c[nH]c2ccccc12)C(=O)O)OCC1c2ccccc2-c2ccccc21,"inconclusive: 39.8 µM [activator, single point]",
Cc1cc2ccccc2n1-c1ccc(C(=O)N2CCC(C(=O)NCc3ccc(Cl)cc3)CC2)s1,"inconclusive: 28.2 µM [activator, partial curve, poor fit]",
CC(C)CN1C(=O)C[C@@]2(C(=O)N(C)c3ccc(NC(=O)C(F)(F)F)cc32)C1c1ccccc1 (some centres undefined),inactive,
CC(=O)N1CCCc2cc(S(=O)(=O)N3CCC(C(=O)Nc4cccc(Cl)c4C)CC3)ccc21,inactive,
O=C(CCCCCBr)N1CCC(CC2CC(c3cccc(Br)c3)=NO2)(C(=O)NCC2CCCCC2)CC1 (centres undefined),"inconclusive: 35.5 µM [activator, partial curve]",
O=C(C[C@H]1C/C=C\C[C@H](NC(=O)OCC2c3ccccc3-c3ccccc32)C(=O)O[C@@H](c2ccccc2)CNC1=O)NCCO,"inconclusive: 20 µM [activator, single point]",
Cc1cc(C)c(C#N)c(SCc2ccccc2F)n1,inactive,
C[C@@H]1CN([C@@H](C)CO)S(=O)(=O)c2ccc(C#CC3CCCCC3)cc2O[C@@H]1CN(C)Cc1cccnc1,inactive,
CC12c3ccccc3C(c3ccccc31)C1C(=O)N(Cc3cccnc3)C(=O)[C@H]12 (some centres undefined),"inconclusive: 3.55 µM [activator, full curve, poor fit]",
CCCCCCSc1ccc([C@H]2N[C@@](C)(C(=O)OC)[C@H]3C(=O)N(CC)C(=O)[C@@H]23)cc1,"inconclusive: 31.6 µM [activator, single point]",
CCOc1ccc(C(=O)NCCn2cc(SCC(=O)Nc3ccc4c(c3)OCCO4)c3ccccc32)cc1,inactive,

SMILES,Potency,growth rescue (activation)
CCC(C(=O)Nc1cc(OC)cc(OC)c1)n1nc(-c2ccc(C)c(C)c2)ccc1=O (centres undefined),"inconclusive: 35.5 µM [activator, single point]",
COc1ccc(Cc2c(-c3cccc(Br)c3)nc3ccc(Br)cn23)c(C)c1,"inconclusive: 50.1 µM [activator, single point]",
Fc1cccc(-n2ncc3c2ncn2nc(COc4ccc(Cl)cc4)nc32)c1,inactive,
O=C(CCC1N=C2c3ccccc3N=C(SCc3ccc(F)cc3)N2C1=O)NCc1ccc(F)cc1 (centres undefined),inactive,
COc1ccc(NC(=O)NC(C)c2c(-n3cccc3)sc(C)c2C)cc1OC (centres undefined),inactive,
COc1cc(OC)cc(-c2sc3ccc(OC)cc3c2C#CCCO)c1,"inconclusive: 44.7 µM [activator, single point]",
COCCn1c(-c2ccc(Br)cc2)csc1=Nc1cccnc1,"inconclusive: 35.5 µM [activator, single point]",
CCN(CC)CCCNC(=O)c1ccc2c(c1)sc1nc(-c3ccc(C)cc3)cn12,inactive,
CNS(=O)(=O)c1cccc(C(=O)OCC(=O)c2cc(C)n(-c3ccc4c(c3)OCO4)c2C)c1,"inconclusive: 39.8 µM [activator, single point]",
Cc1cc(Nc2cccc(C(=O)O)c2)n2nc(C)nc2n1,inactive,
COc1cc(-c2noc(C)c2/C=C/c2ccc(N)cc2)cc(OC)c1OC,"inconclusive: 39.8 µM [activator, single point]",
COCCNC(=S)N(C)[C@H]1C[C@H]2c3cc(-c4ccccc4)ccc3CCN2C(=O)[C@H]1[C@H](C)O,"inconclusive: 28.2 µM [activator, single point]",
Cc1cccc(S(=O)(=O)Nc2ccc(S(=O)(=O)Nc3nccs3)cc2)c1,inactive,
COCC(C)n1c(C)cc(C(=O)CSc2nnc(N)s2)c1C (centres undefined),"inconclusive: 31.6 µM [activator, single point]",
COc1ccc(OC)c(-c2cc(C(=O)NCc3cccs3)no2)c1,,inconclusive: 75.6% [activator]
O=C1C=C(c2ccc(Br)c3ccccc23)C[C@@H](c2ccc3c(c2)OCO3)C1,inactive,
CC1CCN(c2c(NCC3CCC(C(=O)N4CCc5ccccc5C4)CC3)c(=O)c2=O)CC1 (centres undefined),inactive,
CCOC(=O)c1c(C)[nH]c(C)c1S(=O)(=O)N1CCN(c2cc(Cl)ccc2C)CC1,"inconclusive: 50.1 µM [activator, single point]",
CCOc1cccc2sc(N(CCCN(C)C)C(=O)c3ccc(S(=O)(=O)N(C)Cc4ccccc4)cc3)nc12,"inconclusive: 14.1 µM [activator, partial curve]",
Cc1cc(-c2csc(N)n2)c(C)n1CCC(C)C,"inconclusive: 15.8 µM [activator, partial curve]",
